Results as given in a compilation of properties of binary mixtures (doi:10.1021/acs.jced.3c00374).
Some of these densities may be calculated back from excess volumes.

Experiment: xn = mol fraction of the nth substance listed
Conditions: 100 kPa

For `OCCNCCO` + CCCC[n+]1ccn(C)c1.N#C[S-], the mass density (288.15 K, x2 = 0) was 1099.7 kg/m3, the mass density (308.15 K, x2 = 0) was 1086.8 kg/m3 and the mass density (318.15 K, x2 = 0) was 1080.3 kg/m3.
With `CCCC[n+]1ccn(C)c1.N#C[S-]` + OCCNCCO the mass density (288.15 K, x1 = 0.1008) was 1097.2 kg/m3, the mass density (288.15 K, x1 = 0.2993) was 1092.3 kg/m3 and the mass density (288.15 K, x1 = 0.4027) was 1089.8 kg/m3. It also gave a mass density (288.15 K, x1 = 0.5131) of 1087 kg/m3, a mass density (288.15 K, x1 = 0.7102) of 1082.2 kg/m3 and a mass density (288.15 K, x1 = 0.8009) of 1079.9 kg/m3. For the same molecule, the mass density (288.15 K, x1 = 0.9102) was 1077.2 kg/m3, the mass density (288.15 K, x1 = 1) was 1075 kg/m3 and the mass density (298.15 K, x1 = 0.1008) was 1090.9 kg/m3. The mass density (298.15 K, x1 = 0.2103) was 1088.3 kg/m3, the mass density (298.15 K, x1 = 0.4027) was 1083.9 kg/m3 and the mass density (298.15 K, x1 = 0.5131) was 1081.3 kg/m3. It also gave a mass density (298.15 K, x1 = 0.6087) of 1079.1 kg/m3, a mass density (298.15 K, x1 = 0.9102) of 1072.1 kg/m3 and a mass density (298.15 K, x1 = 1) of 1070 kg/m3. The mass density (308.15 K, x1 = 0.1008) was 1084.5 kg/m3, the mass density (308.15 K, x1 = 0.2103) was 1082.1 kg/m3 and the mass density (308.15 K, x1 = 0.4027) was 1077.8 kg/m3. It also gave a mass density (308.15 K, x1 = 0.5131) of 1075.3 kg/m3, a mass density (308.15 K, x1 = 0.7102) of 1070.9 kg/m3 and a mass density (308.15 K, x1 = 0.9102) of 1066.5 kg/m3. For the same molecule, the mass density (308.15 K, x1 = 1) was 1064.5 kg/m3, the mass density (318.15 K, x1 = 0.1008) was 1078.2 kg/m3 and the mass density (318.15 K, x1 = 0.2103) was 1075.9 kg/m3. It also gave a mass density (318.15 K, x1 = 0.2993) of 1074 kg/m3, a mass density (318.15 K, x1 = 0.4027) of 1071.9 kg/m3 and a mass density (318.15 K, x1 = 0.5131) of 1069.6 kg/m3. The mass density (318.15 K, x1 = 0.6087) was 1067.6 kg/m3, the mass density (318.15 K, x1 = 0.7102) was 1065.4 kg/m3 and the mass density (318.15 K, x1 = 0.8009) was 1063.5 kg/m3.
